According to the RNAGym collection of RNA variant scans (doi:10.1093/nar/gkz1192):
The source gives no read counts; variants with many changes may rest on few reads.

B1: CPEB3 Ribozyme (parent)
chain: UAACAGGGGGCCACAGCAGAAGCGUUCACGUCGCAGCCCCUGUCAGAUUCUGGUGAAUCUGCGAAUUCUGCUGUAUAUCUC

Variants of: B1
Test: self-cleavage, relative activity (ratio to wild type); higher = more cleavage; in vitro, sequencing
In short: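 Libraries of CPEB3 self-cleaving ribozyme mutants came from rounds of error-prone PCR and carried barcodes, which DNA sequencing matched to variants. In vitro transcription used T7 RNA polymerase at 37°C for 5 hours, with a further 15 min in DNase I before EDTA stopped the reaction; the ribozymes cleaved during both steps. The RNA was reverse transcribed with template switching and sequenced on Illumina. Relative activity is the cleaved/total read fraction of a variant divided by that of the unmutated ribozyme, averaged over three batches with at least 5 reads.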
Variant A21G U26A U31C A65G U66C has a self-cleavage of 0.06.
C23G U51C A56U U69A showed a self-cleavage of 0.09.
In the case of A21G U41C U72A U76C U78C, the self-cleavage is reported as 0.16.
Variant G24C G36C U74C A75G has a self-cleavage of 0.04.
A21G U41C A56G gave a self-cleavage of 0.44.
For A21U U26C A57G U74A A75U, the self-cleavage was 0.36.
Variant A21U U49C U54A U74C has a self-cleavage of 0.15.
For A21G U25C U41G A64G A65U, the self-cleavage was 0.09.
Variant A21G U25C U80C has a self-cleavage of 0.34.
G24A U26A U66G showed a self-cleavage of 0.27.
G24A C38U A75U gave a self-cleavage of 0.15.
Variant G22A A28G U69A has a self-cleavage of 0.09.
Work on G24A U26A U31C yielded a self-cleavage of 0.09.
For A21G U25C U26C A65G U67C, the self-cleavage was 0.16.
For G22A U54A U67C U69G, the self-cleavage was 0.05.
With A21U U31A G52A G70C the self-cleavage was 0.09.
Variant C23U A35U G46C U48C U54C A65G U80C has a self-cleavage of 0.05.
Work on A21G U48C A65G U72C yielded a self-cleavage of 0.2.
Work on A21G U26C A35G U72C yielded a self-cleavage of 0.38.
With A21G U25C C29A C38A U54G A64G U80A the self-cleavage was 0.05.
G22U U69A U72C showed a self-cleavage of 0.15.
For A21G U25A U41C C50G A56G U60C A77U, the self-cleavage was 0.08.
A21G U25C A35G U48A U72A gave a self-cleavage of 0.04.
C23U U43A A56U U74C showed a self-cleavage of 0.24.
Variant A21G U41C C68G U80A has a self-cleavage of 0.09.
Work on G24A A47U C71A U78G yielded a self-cleavage of 0.08.
Variant A21G U41C U60G has a self-cleavage of 0.16.
For A21G U25C U54A, the self-cleavage was 0.16.
In the case of C23G C38A U67C A75G, the self-cleavage is reported as 0.06.
For C23U A45G U60A, the self-cleavage was 0.16.
With A21G U25C U72C U76A the self-cleavage was 0.28.
Variant A21G U48C U60C has a self-cleavage of 0.21.
For G24C G36A C37U U67C, the self-cleavage was 0.12.
With C23U U51C U54C A56G A57G C68G the self-cleavage was 0.06.
With C23U U26C A47G the self-cleavage was 0.46.
In the case of A21U U26C C81A, the self-cleavage is reported as 0.12.
C23A A35U G36U showed a self-cleavage of 0.13.
In the case of C23U U31C A35G U51A U76A, the self-cleavage is reported as 0.76.
In the case of G24A A35U U49C, the self-cleavage is reported as 0.15.
In the case of C23G U25A A45U C62A A64G, the self-cleavage is reported as 0.09.
Variant C23U C38G C81U has a self-cleavage of 0.19.
A21U U26C U58G A77U gave a self-cleavage of 0.1.
G22U U51C C68A U74A gave a self-cleavage of 0.05.
Work on C23U U41C U69C U80C yielded a self-cleavage of 0.07.
In the case of C23U U41C U49A, the self-cleavage is reported as 0.19.
Work on A21G U26C A57G yielded a self-cleavage of 0.31.
A21G U41C U54A gave a self-cleavage of 0.39.
For A21G U43C U54C U74A, the self-cleavage was 0.38.
In the case of A21G G36C G53C, the self-cleavage is reported as 0.19.
For G24A A45U U60A, the self-cleavage was 0.19.
For C23U G30A A64G U66C U80C, the self-cleavage was 0.09.
Variant A21G U51A U66C has a self-cleavage of 0.9.
For C23A A57G A64G A77G, the self-cleavage was 0.13.
A21G U67C U72C A77U showed a self-cleavage of 0.1.
A21U A45U U66A showed a self-cleavage of 0.57.
With A21G U54A A56G U60C the self-cleavage was 0.11.
With A21U U54A U60A A64G the self-cleavage was 0.27.
C23G U25C U43C U69C showed a self-cleavage of 0.11.
Variant G22U A35G A77G has a self-cleavage of 0.18.
A21G U26C G53C U54G showed a self-cleavage of 0.18.
For G24A U26C A35G A64G U78C, the self-cleavage was 0.13.
A21G U26C C50A A56C showed a self-cleavage of 0.32.
In the case of C23G U25G U48A, the self-cleavage is reported as 0.11.
Work on A21G U60A U74G yielded a self-cleavage of 0.37.
G22U U26C U41C U54C A64G U78C gave a self-cleavage of 0.12.
Work on A21G U26C G33C yielded a self-cleavage of 0.17.
Work on A21G U58C G63A yielded a self-cleavage of 0.29.
Variant A21U U31C U72A has a self-cleavage of 0.13.
Variant A21G U26C U43C C50U U80C has a self-cleavage of 0.47.
For A21G U48C C71U U76C U78C, the self-cleavage was 0.17.
For A21U U48C U74C C79A U80C, the self-cleavage was 0.29.
A21G U25C U41A U48C showed a self-cleavage of 0.31.
A21G U51C A65G gave a self-cleavage of 0.28.
With C23G U26C C38U U43C U54A A57U A75G the self-cleavage was 0.06.
A21G U25C U69A gave a self-cleavage of 0.33.
C23U U41A A64U U66A gave a self-cleavage of 0.09.
With A21U U54A U66C the self-cleavage was 0.3.
Variant G24C C34G U78C has a self-cleavage of 0.19.
A21U U31A G52A G70C U76C C79U gave a self-cleavage of 0.09.
Variant A21G U25C U48C U78C U80C has a self-cleavage of 0.09.
For A21G U60A U67A, the self-cleavage was 0.09.
With C23U U31C U80A the self-cleavage was 0.59.
Variant A21U A35U U41A A56G has a self-cleavage of 0.05.
Variant A21G U25C A64U U69A has a self-cleavage of 0.06.
A21G U25A A28G gave a self-cleavage of 0.11.
A21G U31C U41C A65G gave a self-cleavage of 0.14.
Variant C23G A45G U74G has a self-cleavage of 0.06.
For C23A U26C U43C, the self-cleavage was 0.11.
Work on A21G U43A U66A U76C yielded a self-cleavage of 0.55.
Variant A21G U26C C62G C71A has a self-cleavage of 0.08.
For C23G U67C U76C, the self-cleavage was 0.09.
Work on A21G U60A U69C yielded a self-cleavage of 0.19.
A21G G52A A65G gave a self-cleavage of 0.26.
With A21G U26A U72C the self-cleavage was 0.45.
Work on C23U A45G G73U yielded a self-cleavage of 0.69.
For A21G U41A A56U U78C, the self-cleavage was 0.45.
Variant A21G U43C U80C has a self-cleavage of 0.49.
C23G A47U U58C showed a self-cleavage of 0.1.
With A21G U48C U54A U69C the self-cleavage was 0.37.
Work on C23U U25G U69C U72C A77U U80C yielded a self-cleavage of 0.04.
G22A U25C A56G gave a self-cleavage of 0.18.
Work on A21U U41C A45G yielded a self-cleavage of 0.35.
A21G U26C A47U U72C gave a self-cleavage of 0.39.
For C23A U41C U43C, the self-cleavage was 0.35.
Work on G24A A45U U72A A77U U80C yielded a self-cleavage of 0.1.
For G24A A28G U49C, the self-cleavage was 0.13.
With G24A A35G U76A the self-cleavage was 0.27.
Work on A21G U43C U48C U51A U66C U67C U74C yielded a self-cleavage of 0.19.
A21G U43C U48A A65G showed a self-cleavage of 0.08.
Variant G24A A28G C38G U66C C68A U69C U72C has a self-cleavage of 0.18.
For G24A U41C C59A, the self-cleavage was 0.12.
G24A U41G U69C U74A showed a self-cleavage of 0.15.
A21G U41A A56U A65G gave a self-cleavage of 0.16.
C23G A28G U31A U51C gave a self-cleavage of 0.18.
Variant C23U A64U U72A has a self-cleavage of 0.1.
C23G U66C U69G A77C gave a self-cleavage of 0.
For A21G U43C C71G, the self-cleavage was 0.19.
G24C G33C C50U U54C U60C gave a self-cleavage of 0.12.
Variant A21U U43A U48C G55U U72C has a self-cleavage of 0.11.
For C23U U26C U51C A56G U76C U78A, the self-cleavage was 0.04.
Variant A21G U31A C38U U48C has a self-cleavage of 0.12.
For A21U U31C A47G U67C, the self-cleavage was 0.1.
For A21U U26A U72C, the self-cleavage was 0.18.
Variant C23U A47G U69C U76C has a self-cleavage of 0.11.
For A21G U49C U66G A77G, the self-cleavage was 0.
Variant A21U A28U U31C U43C A56G A64U has a self-cleavage of 0.11.
A21U G30A U31C U51A U69C gave a self-cleavage of 0.07.
In the case of A21G U26A U41C U49C A77U, the self-cleavage is reported as 0.15.
Variant C23U C29U U67C G70A U78C C81U has a self-cleavage of 0.06.
For A21G U31A A77U, the self-cleavage was 0.39.
Variant C23U A57G A65G has a self-cleavage of 0.23.
With G22U U25C A45G U54C the self-cleavage was 0.12.
Variant A21U U31C U41A U51A has a self-cleavage of 0.13.
For A21G U25C U67C, the self-cleavage was 0.24.
Variant C23U A35G U72C A77U has a self-cleavage of 0.95.
A21G U25A U66G gave a self-cleavage of 0.12.
Work on A21G U69C G70U yielded a self-cleavage of 0.52.
With C23G A28U A35U U49G A57G U76C the self-cleavage was 0.1.
In the case of G24A U25C A45G G63U A77G, the self-cleavage is reported as 0.07.
Work on A21G U25A A57G U72C U78C yielded a self-cleavage of 0.06.
Work on C23G U48C U49A A64G yielded a self-cleavage of 0.44.
G24A U26C C38A U48C U66C showed a self-cleavage of 0.1.
For A21G U25C C27U A56G, the self-cleavage was 0.08.
Work on C23U A35C U41C U69C yielded a self-cleavage of 0.08.
Variant G24A U31A A56G U72C has a self-cleavage of 0.09.
A21U U60C U72A showed a self-cleavage of 0.11.
A21G U48A U54C showed a self-cleavage of 0.08.
C23U U26C U49C A56U U60C showed a self-cleavage of 0.08.
In the case of G22C A28G U60C, the self-cleavage is reported as 0.17.
Work on A21G U26C G36A U69C yielded a self-cleavage of 0.06.
In the case of A21G U26A G55U U67C, the self-cleavage is reported as 0.08.
Work on C23A U26C A45G U54C yielded a self-cleavage of 0.37.
In the case of A21G U67G U72C, the self-cleavage is reported as 0.12.
A21G U43C U66C gave a self-cleavage of 0.47.
A21G U48C U51A C79U showed a self-cleavage of 0.32.
Variant G24A G30A U31C A65G has a self-cleavage of 0.22.
Work on A21U U51A U54C yielded a self-cleavage of 0.14.
Work on A21G U43G A65C yielded a self-cleavage of 0.19.
Variant A21U U25A A35G U51C U80C has a self-cleavage of 0.54.
Work on A21U U41G U80A yielded a self-cleavage of 0.25.
Variant G24A U51A U72C has a self-cleavage of 0.18.
With G24C A28U G36C U66C the self-cleavage was 0.17.
In the case of C23G U25C C38G, the self-cleavage is reported as 0.08.
G24A U26C C40U U54A U72C gave a self-cleavage of 0.08.
A21U A28G G33A U72A gave a self-cleavage of 0.07.
For G22A A28U U49C A57G, the self-cleavage was 0.07.
For G22U G33A A35U U58C U66A U72A, the self-cleavage was 0.06.
